{"source": "the supplement of paper PMC3334620", "note": "The full ranking holds about 33,000 sequences; the median of “E-score (-0.5 to 0.5)” is about -0.054, and the highest 2% start at about 0.39. Some of the results follow."}
{"biological_target": "Ylr278c (UniProt Q05854)", "assay": "PBM E-score (8-mer binding enrichment) (E-score (-0.5 to 0.5)); higher = stronger / more preferred TF binding; most listed sequences are background and not binding sites", "settings": "protein concentration: 200 nM; construct: GST-DNA-binding domain", "procedure,_shortened": "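E-scores (a modified Wilcoxon-Mann-Whitney statistic) were assigned by the Universal PBM Analysis Suite to every ungapped eight-base word pooled with its reverse complement. The input came from universal all-10-mer Agilent arrays made double-stranded by primer extension and probed with GST-tagged yeast transcription factors at about 100-200 nM. Fluorescent anti-GST detected bound protein, and masliner normalised the scans.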"}
{"sequence": "ACGTTTCG", "PBM E-score": -0.029}
{"sequence": "CATCAAAA", "PBM E-score": -0.0377}
{"sequence": "GAATAGGA", "PBM E-score": 0.0304}
{"sequence": "ATCATCAT", "PBM E-score": -0.156}
{"sequence": "TACGAAAA", "PBM E-score": -0.0945}
{"sequence": "ACTAAAAC", "PBM E-score": -0.0575}
{"sequence": "AGCTGTCC", "PBM E-score": -0.212}
{"sequence": "AGAGTTTG", "PBM E-score": -0.127}
{"sequence": "TACGCCTA", "PBM E-score": -0.215}
{"sequence": "GGGTGTCA", "PBM E-score": -0.0267}
{"sequence": "CCCCGACC", "PBM E-score": 0.28}
{"sequence": "CGGCAACA", "PBM E-score": 0.235}
{"sequence": "AATAATGC", "PBM E-score": 0.176}
{"sequence": "CGTCACCA", "PBM E-score": -0.174}
{"sequence": "AAACCTGC", "PBM E-score": -0.114}
{"sequence": "TAGAGCGA", "PBM E-score": -0.168}
{"sequence": "TAACGCCA", "PBM E-score": -0.143}
{"sequence": "TGATTACA", "PBM E-score": -0.145}
{"sequence": "AGCTACTG", "PBM E-score": 0.016}
{"sequence": "ATGCCTAG", "PBM E-score": -0.196}
{"sequence": "CAACCTCC", "PBM E-score": 0.272}
{"sequence": "AGTATCCA", "PBM E-score": -0.108}
{"sequence": "ATCAAGAA", "PBM E-score": -0.112}
{"sequence": "AAGATGAA", "PBM E-score": -0.097}
{"sequence": "ACCCCTAT", "PBM E-score": -0.0191}
{"sequence": "GTCAACGA", "PBM E-score": -0.222}
{"sequence": "CGACCTGC", "PBM E-score": 0.098}
{"sequence": "CAGTGTGA", "PBM E-score": -0.125}
{"sequence": "CGATGTGC", "PBM E-score": 0.128}
{"sequence": "GATGGCCA", "PBM E-score": -0.102}
{"sequence": "ACTCCCAC", "PBM E-score": -0.035}
{"sequence": "GTGCGTTA", "PBM E-score": 0.0296}
{"sequence": "TGATACAA", "PBM E-score": -0.0733}
{"sequence": "ACCATTCT", "PBM E-score": -0.091}
{"sequence": "CACCCTGA", "PBM E-score": -0.19}
{"sequence": "GACAGGAA", "PBM E-score": 0.0396}
{"sequence": "TAACTACA", "PBM E-score": -0.0834}
{"sequence": "CAAAACAC", "PBM E-score": 0.0478}
{"sequence": "CACCCTCC", "PBM E-score": 0.178}
{"sequence": "CGATCCGA", "PBM E-score": 0.364}
{"sequence": "CTGCGCAA", "PBM E-score": 0.185}
{"sequence": "CTGTATGA", "PBM E-score": -0.016}
{"sequence": "ACGTAGAG", "PBM E-score": -0.216}
{"sequence": "AACGAGCT", "PBM E-score": -0.129}
{"sequence": "AAACCTTC", "PBM E-score": -0.0365}
{"sequence": "AGTGGAAG", "PBM E-score": -0.0517}
{"sequence": "ATGAACTG", "PBM E-score": 0.0679}
{"sequence": "CCCGACTC", "PBM E-score": 0.194}
{"sequence": "GATTGTTA", "PBM E-score": -0.0198}
{"sequence": "CCAGTAGC", "PBM E-score": 0.181}
{"sequence": "CCTCAGCG", "PBM E-score": 0.0654}
{"sequence": "AGTGCAGA", "PBM E-score": -0.0916}
{"sequence": "AACAAGTT", "PBM E-score": -0.0236}
{"sequence": "ACTCCTCA", "PBM E-score": -0.21}
{"sequence": "AGGTCGTA", "PBM E-score": -0.221}
{"sequence": "AAAACCGC", "PBM E-score": 0.122}
{"sequence": "AGTACAGC", "PBM E-score": -0.0594}
{"sequence": "AAACTCCA", "PBM E-score": 0.176}
{"sequence": "ATACAATC", "PBM E-score": -0.0309}
{"sequence": "ACGACTAG", "PBM E-score": -0.256}
{"sequence": "ACGGGGCG", "PBM E-score": 0.208}
{"sequence": "CACGACGC", "PBM E-score": 0.0518}
{"sequence": "CATGGCGC", "PBM E-score": 0.0912}
{"sequence": "CGCCCGCC", "PBM E-score": 0.319}
{"sequence": "AGATTTGC", "PBM E-score": 0.0503}
{"sequence": "ATCCATTA", "PBM E-score": -0.0934}
{"sequence": "CGCATCCG", "PBM E-score": 0.308}
{"sequence": "AACGCATG", "PBM E-score": -0.0833}
{"sequence": "ATACATCG", "PBM E-score": 0.0697}
{"sequence": "ATCGCCAA", "PBM E-score": -0.201}
{"sequence": "ACCATGCG", "PBM E-score": -0.0305}
{"sequence": "GGGTCGCA", "PBM E-score": 0.139}
{"sequence": "CATTGGTA", "PBM E-score": 0.1}
{"sequence": "ATGTCCTC", "PBM E-score": -0.196}
{"sequence": "CGCCTATC", "PBM E-score": 0.0398}
{"sequence": "GCTCTTGA", "PBM E-score": -0.177}
{"sequence": "AGTCATGG", "PBM E-score": -0.117}
{"sequence": "ACTACCAG", "PBM E-score": -0.0285}
{"sequence": "CGTGTGGC", "PBM E-score": -0.151}
{"sequence": "CTCACACC", "PBM E-score": -0.0798}
{"sequence": "AATAAAGT", "PBM E-score": -0.0321}
{"sequence": "AGAGAATG", "PBM E-score": -0.179}
{"sequence": "TCTATCAA", "PBM E-score": -0.202}
{"sequence": "GCTATGCC", "PBM E-score": -0.025}
{"sequence": "CCCTGCTA", "PBM E-score": -0.13}
{"sequence": "GGCGATGA", "PBM E-score": 0.0488}
{"sequence": "AGAGCTCT", "PBM E-score": -0.215}
{"sequence": "AGCCCGAG", "PBM E-score": 0.0363}
{"sequence": "CGGCCAGC", "PBM E-score": 0.159}
{"sequence": "ACCAGCAC", "PBM E-score": -0.215}
{"sequence": "CCAAGCCG", "PBM E-score": 0.0631}
{"sequence": "CCTCGAAA", "PBM E-score": -0.102}
{"sequence": "AAGGAGTA", "PBM E-score": -0.0326}
{"sequence": "ATCGTCTA", "PBM E-score": -0.19}
{"sequence": "CGACGTGC", "PBM E-score": 0.0957}
{"sequence": "CGAACTTA", "PBM E-score": 0.0907}
{"sequence": "AATTGTCG", "PBM E-score": 0.172}
{"sequence": "TATGGCCA", "PBM E-score": -0.0164}
{"sequence": "AGTCGACA", "PBM E-score": -0.135}
{"sequence": "CTTAACTC", "PBM E-score": 0.00586}
{"sequence": "AAGGTATA", "PBM E-score": -0.161}
{"sequence": "ATCCGCGA", "PBM E-score": 0.253}
{"sequence": "TAAGCGCA", "PBM E-score": -0.168}
{"sequence": "ACCAATGG", "PBM E-score": -0.00662}
{"sequence": "CACCCACC", "PBM E-score": 0.0612}
{"sequence": "CCCCAGAA", "PBM E-score": 0.00338}
{"sequence": "TAAGTTGA", "PBM E-score": -0.17}
{"sequence": "GGCATACA", "PBM E-score": -0.0374}
{"sequence": "CCCAGAGC", "PBM E-score": -0.243}
{"sequence": "ACAGTCAC", "PBM E-score": -0.241}
{"sequence": "ACTTCCCT", "PBM E-score": -0.0905}
{"sequence": "CAGGCGTA", "PBM E-score": -0.323}
{"sequence": "GAGTGCCC", "PBM E-score": 0.0464}
{"sequence": "GGTTCACA", "PBM E-score": -0.105}
{"sequence": "CGTAGCAG", "PBM E-score": -0.0985}
{"sequence": "GGACTTCA", "PBM E-score": 0.198}
{"sequence": "ACTTGGCA", "PBM E-score": -0.23}
{"sequence": "CGACGCAC", "PBM E-score": 0.0113}
{"sequence": "GATGGACC", "PBM E-score": 0.0223}
{"sequence": "AGCCTATG", "PBM E-score": -0.255}
{"sequence": "GTTCTCAA", "PBM E-score": -0.162}
{"sequence": "ACTACAAG", "PBM E-score": -0.0753}
{"sequence": "ACTTCGCG", "PBM E-score": 0.196}
{"sequence": "GACATGAA", "PBM E-score": -0.033}
{"sequence": "CGCTTTCA", "PBM E-score": 0.0276}
{"sequence": "CGCGCACG", "PBM E-score": 0.196}
{"sequence": "CTACAAGA", "PBM E-score": -0.00619}
{"sequence": "CGTCTGTC", "PBM E-score": -0.00958}
{"sequence": "AATACTCG", "PBM E-score": -0.0284}
{"sequence": "CAGCTCCG", "PBM E-score": 0.426}
{"sequence": "CTCTAACC", "PBM E-score": -0.0745}
{"sequence": "AACTATAA", "PBM E-score": 0.00114}
{"sequence": "TAAGCCTA", "PBM E-score": -0.0455}
{"sequence": "CTTCTAAC", "PBM E-score": -0.156}
{"sequence": "AAGCGTGC", "PBM E-score": -0.0134}
{"sequence": "TCTTTGCA", "PBM E-score": -0.141}
{"sequence": "CATGTAGC", "PBM E-score": -0.182}
{"sequence": "CCGCAGAA", "PBM E-score": 0.261}
{"sequence": "ATGACCCG", "PBM E-score": -0.0571}
{"sequence": "GCATACGA", "PBM E-score": -0.236}
{"sequence": "CGTTTTCC", "PBM E-score": 0.0748}
{"sequence": "CTCAGGTC", "PBM E-score": -0.0518}
{"sequence": "GCCACCAC", "PBM E-score": -0.288}
{"sequence": "CTCAACCC", "PBM E-score": -0.0959}
{"sequence": "CACTTGCC", "PBM E-score": 0.0403}
{"sequence": "CATGACCC", "PBM E-score": -0.075}
{"sequence": "ATTTATGG", "PBM E-score": -0.0865}
{"sequence": "CTGCCTAA", "PBM E-score": -0.235}
{"sequence": "GGAACAGA", "PBM E-score": 0.096}
{"sequence": "CGATGTTA", "PBM E-score": -0.0237}
{"sequence": "CCTGTGCG", "PBM E-score": 0.0174}
{"sequence": "CAACTTAA", "PBM E-score": -0.214}
{"sequence": "AGTAGAAA", "PBM E-score": 0.0667}
{"sequence": "CACTTACC", "PBM E-score": 0.119}
{"sequence": "CGGGGAAA", "PBM E-score": 0.365}
{"sequence": "TGCCATAA", "PBM E-score": -0.0325}
{"sequence": "GAAGTAAC", "PBM E-score": 0.0354}
{"sequence": "TACCCTAA", "PBM E-score": -0.157}
{"sequence": "GTGCAACA", "PBM E-score": -0.184}
{"sequence": "GTGTGATA", "PBM E-score": -0.0667}
{"sequence": "AGGTTTAT", "PBM E-score": 0.157}
{"sequence": "AGGGTACC", "PBM E-score": -0.21}
{"sequence": "GCGACATA", "PBM E-score": -0.0837}
{"sequence": "AATTCACC", "PBM E-score": 0.181}
{"sequence": "GATATCCC", "PBM E-score": 0.288}
{"sequence": "AAGATGGC", "PBM E-score": 0.0523}
{"sequence": "ATGATCGA", "PBM E-score": -0.193}
{"sequence": "ACGGATCC", "PBM E-score": 0.275}
{"sequence": "CAATGTGC", "PBM E-score": -0.0161}
{"sequence": "GATATGCA", "PBM E-score": 0.0751}
{"sequence": "GACGTTAC", "PBM E-score": -0.181}
{"sequence": "GTCTGGAA", "PBM E-score": -0.223}
